In the supplement of paper PMC4967469:
IC50 is the fitted dose that halves viability relative to control wells, and lower means more sensitive; where the fit passes the top or lowest dose, that dose stands as a limit. AUC sums up the same curve from the lowest dose to the 256-fold higher top dose; the more sensitive the line, the further below 1. For some of these results: A top dose marked as inferred comes from the curve model; the source does not state it.

Columns and labels:
Test in all cases: Viability of human cancer cell lines after 72 h of drug (GDSC screen)
BMS-345541 = compound: Cc1ccc2nc(NCCN)c3ncc(C)n3c2c1 [BMS-345541]; details: top dose 16 µM
Description: (§1)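 Human cancer cell lines in 384-well plates, medium with 10% serum, drug for 72 h over a 256-fold dose range (nine 2-fold or five 4-fold steps up to the top dose). Adherent lines were fixed and stained with the nucleic acid dye Syto60, suspension lines read with resazurin; signal relative to control wells, capped at 0 and 100%. One two-parameter sigmoid per drug and line, fitted in a mixed model over all curves with the slope shared within a line.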

NPK76-II-72-1 = compound: COc1cc(C(=O)NC2CCN(C)CC2)ccc1Nc1ncc2c(n1)N(C1CCCC1)C(C)CC(=O)N2C [NPK76-II-72-1]; details: top dose 10.24 µM; top dose inferred
Description: as §1

Bexarotene = compound: C=C(c1ccc(C(=O)O)cc1)c1cc2c(cc1C)C(C)(C)CCC2(C)C [Bexarotene]; details: top dose 8 µM
Description: as §1

YK 4-279 = compound: COc1ccc(C(=O)CC2(O)C(=O)Nc3c(Cl)ccc(Cl)c32)cc1 [YK 4-279]; details: top dose 10 µM
Description: as §1

XAV 939 = compound: Oc1nc(-c2ccc(C(F)(F)F)cc2)nc2c1CSCC2 [XAV 939]; details: top dose 5 µM; top dose inferred
Description: as §1

GSK-650394 = compound: O=C(O)c1ccc(-c2c[nH]c3ncc(-c4ccccc4)cc23)cc1C1CCCC1 [GSK-650394]; details: top dose 16 µM; top dose inferred
Description: as §1

Etoposide = compound: COc1cc([C@@H]2c3cc4c(cc3[C@@H](O[C@@H]3O[C@@H]5CO[C@@H](C)O[C@H]5[C@H](O)[C@H]3O)[C@H]3COC(=O)[C@H]23)OCO4)cc(OC)c1O [Etoposide]; details: top dose 16 µM
Description: as §1

Cell Line	AUC (BMS-345541)	IC50 (BMS-345541) [µM]	AUC (NPK76-II-72-1)	IC50 (NPK76-II-72-1) [µM]	AUC (Bexarotene)	IC50 (Bexarotene) [µM]	AUC (YK 4-279)	IC50 (YK 4-279) [µM]	AUC (XAV 939)	IC50 (XAV 939) [µM]	AUC (GSK-650394)	IC50 (GSK-650394) [µM]	AUC (Etoposide)	IC50 (Etoposide) [µM]
769-P (kidney, adherent)	0.719	4.45	0.929	> 10.2	0.963	> 8	0.856	9.23	0.94	> 5	0.717	4.39	0.607	2.03
786-0 (kidney, adherent)	0.742	4.59	0.95	> 10.2	0.907	> 8	0.763	3.34	0.987	> 5	0.602	1.86	0.394	0.525
A204 (rhabdomyosarcoma, adherent)	0.859	> 16	0.886	> 10.2	0.891	> 8	0.732	3.53	0.944	> 5	0.819	12.8	0.326	0.282
A673 (rhabdomyosarcoma, adherent)	0.923	> 16	0.914	> 10.2	0.947	> 8	0.665	1.7	0.98	> 5	0.846	9.91	0.648	2.45
BCPAP (thyroid, adherent)	0.892	15.7	0.898	> 10.2	0.915	> 8	0.672	1.78	0.97	> 5	0.767	5.42	0.466	0.813
BEN (non-small cell lung carcinoma, adherent)	0.901	> 16	0.935	> 10.2	0.899	> 8	0.916	> 10	0.985	> 5	0.866	> 16	0.901	> 16
BFTC-909 (kidney, adherent)	0.977	> 16	0.974	> 10.2	0.908	> 8	0.689	2.09	0.9	> 5	0.81	8.17	0.522	1.14
BHY (head and neck, adherent)	0.801	7.83	0.905	> 10.2	0.941	> 8	0.698	2.26	0.947	> 5	0.749	5.19	0.58	1.65
BPH-1 (prostate, adherent)	0.602	1.96	0.625	1.47	0.977	> 8	0.637	1.56	0.876	> 5	0.9	> 16	0.512	1.08
CAL-54 (kidney, adherent)	0.947	> 16	0.915	> 10.2	0.984	> 8	0.769	4.32	0.952	> 5	0.985	> 16	0.814	10.4
CAMA-1 (breast, adherent)	0.928	> 16	0.961	> 10.2	0.78	4.2	0.802	6.45	0.965	> 5	0.851	> 16	0.716	4.83
HCE-4 (oesophagus, adherent)	0.936	> 16	0.991	> 10.2	0.967	> 8	0.68	1.83			0.788	5.94	0.436	0.686
HPAC (pancreas, adherent)	0.91	> 16	0.909	> 10.2	0.967	> 8	0.776	5.75			0.612	2.3	0.618	2.41
HT-144 (melanoma, adherent)	0.982	> 16	0.978	> 10.2			0.766	4.12	0.965	> 5	0.875	> 16	0.175	0.0899
IM-95 (stomach, adherent)	0.705	3.94	0.914	> 10.2	0.849	6.65	0.871	> 10			0.722	4.48	0.735	4.92
KOSC-2 (head and neck, adherent)			0.914	> 10.2	0.985	> 8	0.552	0.873	0.929	> 5	0.845	12.3	0.911	> 16
KP-4 (pancreas, adherent)	0.893	> 16	0.967	> 10.2			0.651	1.61	0.982	> 5	0.723	4.15	0.353	0.4
